Results reported in paper PMC8719716.
No constants are given. Whether binding was seen depends on the method and setting. Binding seen in cells or lysates may run through a third protein. Some binding calls cover weakened binding; strength is not graded here. Sequences can lack the tags named with a protein.

T1: X. laevis CEP97 WT, exogenous, tag not named for the experiment (X. laevis) (UniProt Q6GPJ8)
T1 sequence: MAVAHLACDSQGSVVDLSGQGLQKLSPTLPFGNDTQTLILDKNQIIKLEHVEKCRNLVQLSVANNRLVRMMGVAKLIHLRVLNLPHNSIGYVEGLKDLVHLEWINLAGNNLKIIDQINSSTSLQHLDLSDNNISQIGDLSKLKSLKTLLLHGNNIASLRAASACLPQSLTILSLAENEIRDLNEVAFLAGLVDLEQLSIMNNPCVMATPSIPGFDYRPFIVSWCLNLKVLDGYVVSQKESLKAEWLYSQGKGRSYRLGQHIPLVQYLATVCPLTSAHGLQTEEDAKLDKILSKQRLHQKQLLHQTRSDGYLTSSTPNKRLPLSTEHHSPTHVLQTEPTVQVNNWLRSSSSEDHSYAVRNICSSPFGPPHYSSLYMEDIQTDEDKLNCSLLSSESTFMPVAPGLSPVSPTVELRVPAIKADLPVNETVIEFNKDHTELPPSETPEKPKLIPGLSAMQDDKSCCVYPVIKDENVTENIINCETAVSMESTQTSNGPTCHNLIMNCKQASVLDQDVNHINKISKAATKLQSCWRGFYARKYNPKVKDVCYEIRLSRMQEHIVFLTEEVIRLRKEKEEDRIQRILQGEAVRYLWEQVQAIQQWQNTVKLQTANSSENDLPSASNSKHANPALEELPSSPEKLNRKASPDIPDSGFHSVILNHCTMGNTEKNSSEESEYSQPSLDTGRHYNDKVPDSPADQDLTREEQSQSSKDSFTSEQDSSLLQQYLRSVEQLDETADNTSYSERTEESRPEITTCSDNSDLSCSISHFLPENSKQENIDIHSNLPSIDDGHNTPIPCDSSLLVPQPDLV

T2: human CEP97-HA WT (human) (UniProt Q8IW35)
T2 sequence: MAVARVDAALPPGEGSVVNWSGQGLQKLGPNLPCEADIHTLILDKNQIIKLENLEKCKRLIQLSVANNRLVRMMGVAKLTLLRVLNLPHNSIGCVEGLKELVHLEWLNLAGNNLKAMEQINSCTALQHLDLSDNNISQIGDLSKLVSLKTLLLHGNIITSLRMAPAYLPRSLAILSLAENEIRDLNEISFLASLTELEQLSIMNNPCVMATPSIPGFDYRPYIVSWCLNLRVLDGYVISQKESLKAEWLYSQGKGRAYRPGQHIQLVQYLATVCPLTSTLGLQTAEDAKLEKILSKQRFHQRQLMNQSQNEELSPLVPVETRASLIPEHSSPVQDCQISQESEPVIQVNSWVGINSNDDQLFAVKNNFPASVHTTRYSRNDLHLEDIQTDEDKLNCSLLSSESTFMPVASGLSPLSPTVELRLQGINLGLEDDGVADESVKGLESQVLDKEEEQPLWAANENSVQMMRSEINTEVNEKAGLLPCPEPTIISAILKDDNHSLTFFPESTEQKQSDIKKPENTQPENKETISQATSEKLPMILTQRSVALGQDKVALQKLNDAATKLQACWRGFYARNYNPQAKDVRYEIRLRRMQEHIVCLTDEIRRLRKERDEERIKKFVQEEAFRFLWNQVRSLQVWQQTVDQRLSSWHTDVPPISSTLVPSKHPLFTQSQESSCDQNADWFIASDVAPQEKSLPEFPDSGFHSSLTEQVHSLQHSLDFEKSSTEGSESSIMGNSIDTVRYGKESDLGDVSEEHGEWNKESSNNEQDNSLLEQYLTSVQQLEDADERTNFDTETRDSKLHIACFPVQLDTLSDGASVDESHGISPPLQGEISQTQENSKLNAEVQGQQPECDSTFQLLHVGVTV

T3: human CEP97-HA Δ577–610 (human) (UniProt Q8IW35)
T3 sequence: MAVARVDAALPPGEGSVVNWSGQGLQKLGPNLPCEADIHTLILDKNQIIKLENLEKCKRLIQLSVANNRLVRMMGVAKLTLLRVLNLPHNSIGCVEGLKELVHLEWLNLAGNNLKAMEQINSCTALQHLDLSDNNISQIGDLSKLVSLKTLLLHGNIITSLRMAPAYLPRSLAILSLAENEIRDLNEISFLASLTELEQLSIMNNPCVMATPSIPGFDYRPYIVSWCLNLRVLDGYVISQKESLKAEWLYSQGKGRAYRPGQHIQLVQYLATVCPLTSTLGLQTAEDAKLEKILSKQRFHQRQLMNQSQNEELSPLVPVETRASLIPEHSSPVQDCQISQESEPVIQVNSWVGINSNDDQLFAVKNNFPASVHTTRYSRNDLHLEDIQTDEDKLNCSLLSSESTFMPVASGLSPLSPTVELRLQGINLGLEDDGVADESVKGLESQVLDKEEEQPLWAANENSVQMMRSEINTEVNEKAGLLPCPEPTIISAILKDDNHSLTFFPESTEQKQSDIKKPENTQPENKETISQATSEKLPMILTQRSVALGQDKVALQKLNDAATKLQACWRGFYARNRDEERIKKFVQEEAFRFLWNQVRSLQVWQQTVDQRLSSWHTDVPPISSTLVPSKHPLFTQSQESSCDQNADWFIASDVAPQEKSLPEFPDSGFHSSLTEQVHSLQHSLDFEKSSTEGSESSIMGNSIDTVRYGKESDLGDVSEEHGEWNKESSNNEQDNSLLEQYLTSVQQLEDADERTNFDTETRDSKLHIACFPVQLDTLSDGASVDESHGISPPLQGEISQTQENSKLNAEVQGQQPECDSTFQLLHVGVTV


Legend:
[1] = target: T1, X. laevis CEP97 WT, exogenous, tag not named for the experiment (X. laevis); assay: co-IP; Xenopus embryos injected with mRNAs at the one-cell stage, harvested at stages 11–12, lysed in TNSG buffer (50 mM Tris-HCl pH 7.4, 150 mM NaCl, 1% NP-40, 10% glycerol) with protease and phosphatase inhibitors; anti-V5, anti-Flag M2 or anti-HA agarose, 6–8 h at 4°C; reciprocal
[2] = target: T2, human CEP97-HA WT (human); assay: co-IP; HEK293T cells transfected with human CEP97-HA and hCdc20B-Flag or hSpag5-Flag; reciprocal co-IPs
[3] = target: T3, human CEP97-HA Δ577–610 (human); assay: as above

Row | binding [1] | binding [2] | binding [3] | Molecule
1 | binds | – | – | X. laevis Dyrk1a kinase-dead form (K180R) (from UniProt Q2TAE3 1-750) (enzyme)
2 | – | binds | no binding | human Cdc20B-Flag (protein, UniProt Q86Y33 1-519) MEWKLERTAPRRVRTEEEMLWESIMRVLSKDLKQKRSQDSANVLDSVNATYSDFKSNFAKRLSAEVPVASSPITTRWQQSQTRALSSDSFGEEQSTTYLPEASGSVLKTPPEKETLTLGSRKEQLKTPSKGISETSNSALHFCKAPHAMDRDWKESVASKGQKCLKQLFVTQNVVQQANGKMQLCEQSECVWKGCKDGVRDESFHLKSSGDINDSILQPEVKIHITGLRNDYYLNILDWSFQNLVAIALGSAVYIWNGENHNGIENIDLSLTCNYISSVSWIKEGTCLAVGTSEGEVQLWDVVTKKRLRNMLGHLSVVGALSWNHFILSSGSRLGRVYHHDVRVAQHHVGTLRHKQAVCALKWSPDGRLLSSGCSDGLLTIWPHDPGASAQGQPLKVITQSTAVKAMDWCPWQSGVLAIGGGMKDGRLHILDINAGKSIQTPSTNSQICSLIWLPKTKEIATGQGTPKNDVTVWTCPTVSRSGGFFGHRGRVLHLSLSPDQTRVFSAAADGTASVWNCY
3 | – | binds | no binding | human Spag5-Flag (protein, UniProt Q96R06 1-1193) MWRVKKLSLSLSPSPQTGKPSMRTPLRELTLQPGALTNSGKRSPACSSLTPSLCKLGLQEGSNNSSPVDFVNNKRTDLSSEHFSHSSKWLETCQHESDEQPLDPIPQISSTPKTSEEAVDPLGNYMVKTIVLVPSPLGQQQDMIFEARLDTMAETNSISLNGPLRTDDLVREEVAPCMGDRFSEVAAVSEKPIFQESPSHLLEESPPNPCSEQLHCSKESLSSRTEAVREDLVPSESNAFLPSSVLWLSPSTALAADFRVNHVDPEEEIVEHGAMEEREMRFPTHPKESETEDQALVSSVEDILSTCLTPNLVEMESQEAPGPAVEDVGRILGSDTESWMSPLAWLEKGVNTSVMLENLRQSLSLPSMLRDAAIGTTPFSTCSVGTWFTPSAPQEKSTNTSQTGLVGTKHSTSETEQLLCGRPPDLTALSRHDLEDNLLSSLVILEVLSRQLRDWKSQLAVPHPETQDSSTQTDTSHSGITNKLQHLKESHEMGQALQQARNVMQSWVLISKELISLLHLSLLHLEEDKTTVSQESRRAETLVCCCFDLLKKLRAKLQSLKAEREEARHREEMALRGKDAAEIVLEAFCAHASQRISQLEQDLASMREFRGLLKDAQTQLVGLHAKQEELVQQTVSLTSTLQQDWRSMQLDYTTWTALLSRSRQLTEKLTVKSQQALQERDVAIEEKQEVSRVLEQVSAQLEECKGQTEQLELENSRLATDLRAQLQILANMDSQLKELQSQHTHCAQDLAMKDELLCQLTQSNEEQAAQWQKEEMALKHMQAELQQQQAVLAKEVRDLKETLEFADQENQVAHLELGQVECQLKTTLEVLRERSLQCENLKDTVENLTAKLASTIADNQEQDLEKTRQYSQKLGLLTEQLQSLTLFLQTKLKEKTEQETLLLSTACPPTQEHPLPNDRTFLGSILTAVADEEPESTPVPLLGSDKSAFTRVASMVSLQPAETPGMEESLAEMSIMTTELQSLCSLLQESKEEAIRTLQRKICELQARLQAQEEQHQEVQKAKEADIEKLNQALCLRYKNEKELQEVIQQQNEKILEQIDKSGELISLREEVTHLTRSLRRAETETKVLQEALAGQLDSNCQPMATNWIQEKVWLSQEVDKLRVMFLEMKNEKEKLMIKFQSHRNILEENLRRSDKELEKLDDIVQHIYKTLLSIPEVVRGCKELQGLLEFLS
